The full ranking holds about 33,000 sequences; the median of “E-score (-0.5 to 0.5)” is about -0.032, and the highest 2% start at about 0.36. This is one part of the list.
These sequences were tested against T1, Sko1 (UniProt Q02100) (assay: PBM E-score (8-mer binding enrichment) (E-score (-0.5 to 0.5)); higher = stronger / more preferred TF binding; most listed sequences are background and not binding sites). Conditions: protein concentration: 200 nM; construct: GST-full length.
T1 sequence: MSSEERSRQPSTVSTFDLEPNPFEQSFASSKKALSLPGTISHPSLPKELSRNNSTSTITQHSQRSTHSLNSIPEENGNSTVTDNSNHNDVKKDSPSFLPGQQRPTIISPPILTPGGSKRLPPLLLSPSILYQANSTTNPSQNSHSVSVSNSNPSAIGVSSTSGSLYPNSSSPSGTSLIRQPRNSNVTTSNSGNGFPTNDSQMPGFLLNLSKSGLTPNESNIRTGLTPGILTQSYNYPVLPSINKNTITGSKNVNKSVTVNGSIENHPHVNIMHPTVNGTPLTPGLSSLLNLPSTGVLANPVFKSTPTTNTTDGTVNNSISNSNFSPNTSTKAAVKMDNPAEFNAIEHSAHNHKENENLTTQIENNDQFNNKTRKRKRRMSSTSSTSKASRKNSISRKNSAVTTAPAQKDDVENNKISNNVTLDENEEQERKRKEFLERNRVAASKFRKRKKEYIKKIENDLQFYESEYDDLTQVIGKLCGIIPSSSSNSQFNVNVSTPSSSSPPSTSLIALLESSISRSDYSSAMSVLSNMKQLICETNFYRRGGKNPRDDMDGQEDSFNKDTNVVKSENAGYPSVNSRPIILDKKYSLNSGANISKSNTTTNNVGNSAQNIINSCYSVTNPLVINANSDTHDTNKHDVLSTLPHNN
Protocol: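 Universal 'all 10-mer' protein binding microarrays (Agilent AMADID 015681) probed with GST-tagged S. cerevisiae TFs (full-length or DBD) made by in vitro transcription/translation (PURExpress), about 100-200 nM. Bound TF was detected with fluorescent anti-GST. Each ungapped 8-mer (which stands for itself and its reverse complement) is scored by the PBM enrichment score (E-score), a modified Wilcoxon-Mann-Whitney statistic from -0.5 to +0.5, computed with the Universal PBM Analysis Suite. Scale: above 0.35 generally sequence-specific binding.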

Point of comparison: TAACCTAA, “PBM E-score” value 0.166. Against it:
- AACCGGTA — lower, -0.0378
- ACCGTGTA — lower, 0.0645
- CAATCCAC — lower, -0.0544
- TAAGCTGA — lower, -0.0396
- CTGAAGAA — lower, -0.213
- CTCACCAC — lower, -0.0734
- TCATATAA — higher, 0.187
- ATCGAATA — lower, -0.0264
- AGCTGCCT — lower, -0.263
- TAAATTCA — higher, 0.176
- CCACCAGA — lower, -0.082
- GTACATCA — higher, 0.366
- CTCTAGAA — lower, -0.157
- GGGAGAGA — lower, -0.331
- CCTTGGGC — lower, -0.311
- AGCTTTAG — lower, 0.0249
- GGGCACAA — lower, -0.303
- ACGGTCCG — lower, -0.185
- GTCGAAGA — lower, 0.0177
- CGTAGACG — higher, 0.278
- CGACGTAC — higher, 0.412
- GCGTGTAA — lower, 0.0982
- AACAACTC — lower, -0.0934
- CGCCCTAC — lower, -0.113
- ATATGAGA — lower, -0.0796
- CCCATTAG — lower, -0.254
- ACTAATTG — lower, 0.00529
- GAACGTGC — lower, -0.0481
- ACGTCGAG — higher, 0.254
- GAGAGTGC — lower, 0.0123
- CGTGCAAA — the same, 0.166
- GGCAAACA — lower, 0.159
- CCAGATCC — lower, -0.342
- CGACTGCA — lower, -0.0683
- AACCGACT — lower, -0.131
- AACAAACC — lower, 0.0553
- AGTGACTA — lower, -0.0228
- ACAGATGC — lower, -0.0202
- CTCAAGAC — lower, -0.0102
- ACCTATAG — lower, -0.0953
- AGGCCATG — lower, -0.078
- GCAAAAAC — lower, 0.0349
- CCTCATAC — higher, 0.195
- TCAGTAAA — higher, 0.225
- CTCACCCC — lower, -0.198
- GTTAACTA — lower, 0.119
- CGCCGCGA — lower, -0.0222
- CGTCCCAA — lower, -0.0678
- CATCTCCC — lower, -0.332
- ATGAAAAT — higher, 0.195
- ATGGCCAC — lower, -0.0519
- TAAGAGGA — lower, -0.0658
- CAGTTCAG — lower, -0.112
- AAAATTAC — higher, 0.266
- AAGGCGAG — lower, -0.282
- GTTGAAAA — lower, -0.037
- CCGTCTAA — lower, -0.207
- CTGTAAGA — lower, -0.00039
- ACGGCACA — lower, -0.172
- AACGGACT — lower, -0.156
- GTTTATTA — higher, 0.345
- ACATCCAA — lower, 0.128
- GTCCTCCA — lower, -0.134
- ATCGGAAG — lower, 0.138
- TAATAGTA — higher, 0.175
- CCTAGGAG — lower, -0.18
- GGGCGGAA — lower, -0.264
- CCGATCAA — lower, -0.169
- GGATGAAC — lower, -0.0118
- GTCGGCCA — lower, -0.0498
- CCCTAAAA — lower, -0.0699
- ACCAAGCG — lower, -0.138
- CCCCCCAC — lower, -0.372
- TACATGTA — higher, 0.177
- CCAGACTA — lower, -0.21
- CCAATTAG — lower, 0.105
- ATGGGACC — lower, -0.0278
- CTCGGGAA — lower, -0.14
- CTAGCGCA — lower, -0.113
- AGTAACAC — lower, -0.0531
- CAGAGCTA — lower, -0.201
- AAAAGATT — lower, 0.0227
- CGCACAAG — lower, -0.0732
- CACATTTC — lower, 0.057
- CAATACAA — lower, 0.0426
- GGTGCCTA — lower, -0.12
- CATAACTA — higher, 0.194
- GAGGAGAA — lower, -0.177
- CAGGGAGC — lower, -0.26
- CTCAGTGC — lower, -0.187
- CGGGTACG — lower, 0.113
- CTTAGCCA — lower, -0.122
- ACGAAGAG — lower, 0.104
- AGAGCTAA — lower, -0.0806
- CCGGATGC — lower, -0.363
- AAGGAGAA — lower, -0.0338
- ATAGTTGA — higher, 0.169
- ATACTCTG — lower, -0.0765
- ACCCAACA — lower, -0.208
- CTTGATTC — lower, 0.0171
- ATCTAATC — higher, 0.246
- CTAGTAAG — lower, 0.0111
- ACAGAAGG — lower, -0.333
- CTTGAGTA — lower, -0.183
- ACGCTACT — lower, -0.0478
- ATTTATAA — higher, 0.284
- AGATCATC — lower, -0.0114
- CAGGCAGC — lower, -0.349
- CGGCACAC — lower, -0.123

— the supplement of paper PMC3334620
